Screen size: about 45,000 compounds; about 65 (0.1%) were called active. Calls follow the shape of the dose curve; as a rule, active = well fitted activation curve with a large enough effect; inconclusive = small, poorly fitted or top-dose-only effect; inactive = no such curve, though single readings can be large or run the other way. Some of the results follow.
What follows are compounds tested against Galactocerebrosidase (Homo sapiens) (UniProt P54803) (assay: A Novel Cell-Based Assay to Identify Small Molecules for B -Galactocerebrosidase). Details: 145M-Twi-hGALC-G270D cells (Twitcher mouse brain line with human GALC G270D), HMU-beta-Gal fluorescence, 48 h; series mostly up to 57.5 µM; activation: at the top concentration.
Method in brief: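 Brain-derived Twitcher mouse 145M-Twi cells stably expressing human GALC-G270D or wild-type GALC, treated live, then residual GALC activity read by fluorescence of HMU-b-Gal substrate (0.1 mM final) in citrate-phosphate buffer pH 5.2 with sodium taurocholate. Signal increase indicates enhancement.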
Also: 0% is about no effect; nearly all actives have a fitted effect of over 65% in size.

UniProt P54803, sequence (P54803 whole entry, looked up): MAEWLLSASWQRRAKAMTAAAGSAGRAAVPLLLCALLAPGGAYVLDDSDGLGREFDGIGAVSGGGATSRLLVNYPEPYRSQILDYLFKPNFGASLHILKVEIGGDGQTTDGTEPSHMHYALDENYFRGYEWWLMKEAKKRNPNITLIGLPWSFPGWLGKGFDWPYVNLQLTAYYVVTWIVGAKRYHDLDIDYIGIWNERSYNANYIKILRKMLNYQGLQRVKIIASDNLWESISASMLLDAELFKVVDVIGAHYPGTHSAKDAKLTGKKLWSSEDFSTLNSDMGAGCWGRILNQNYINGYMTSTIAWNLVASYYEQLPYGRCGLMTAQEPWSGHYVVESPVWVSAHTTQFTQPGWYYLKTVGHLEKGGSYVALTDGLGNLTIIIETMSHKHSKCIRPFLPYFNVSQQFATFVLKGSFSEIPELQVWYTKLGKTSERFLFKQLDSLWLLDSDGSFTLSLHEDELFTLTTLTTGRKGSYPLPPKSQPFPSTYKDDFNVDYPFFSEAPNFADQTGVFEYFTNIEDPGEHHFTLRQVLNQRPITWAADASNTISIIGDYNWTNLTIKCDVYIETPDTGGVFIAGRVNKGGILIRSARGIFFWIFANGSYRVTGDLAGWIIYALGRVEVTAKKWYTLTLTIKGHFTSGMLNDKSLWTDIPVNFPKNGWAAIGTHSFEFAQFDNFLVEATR

activation, inactive:
COc1ccc(C2=NS(=O)(=O)N(C)C(C(=O)Nc3cc(C)ccc3O)=C2)cc1OC -7.64%
Cc1ccc(C)c(CSc2nc3ncccc3[nH]2)c1 -4.16%
Cc1cccc(-c2noc(CN(C(=O)COc3ccc(C(C)C)cc3)C(C)C)n2)c1 -39.4%
CCOC(=O)c1c(C)n(-c2ccccc2)c2ccc(OC(=O)c3ccccc3)cc12 -26.9%
Cc1cccc(N2C(=O)CSC23C(=O)N(Cc2cccc(F)c2)c2ccccc23)c1 (stereo unspecified) -39.8%
CN1CCN(C(CNC(=O)C(=O)Nc2ccccc2)c2ccc3c(c2)OCO3)CC1 (stereo unspecified) -9.81%
COc1cccc(NC(=O)NCc2ccc3c(c2)CCN3C(=O)c2ccccc2)c1 -3.4%
Cc1cccc(C(=O)Nc2sc3c(c2C(=O)NCc2ccco2)CCCC3)c1 -10.6%
Cc1ccc2[nH]c(=O)c3cc(C(=O)N4CCN(c5ccccc5)CC4)sc3c2c1 2.49%
CCN(CC)S(=O)(=O)c1ccc2c(c1)N(CC(=O)NCCCN1CCN(c3ccccc3F)CC1)C(=O)CO2 -5.42%
COC(=O)c1sccc1S(=O)(=O)N1CCN(c2ccccc2)CC1 -8.07%
COc1ccccc1C1C=C(c2ccc(F)cc2)Nc2nc(-c3ccc(Cl)cc3)nn21 (stereo unspecified) -8.9%
CCCc1nn2c(=O)cc(COC(=O)c3cccc(NC(=O)COc4ccc(F)cc4)c3)nc2s1 -16%
Clc1cccc(N2CCN(c3ncnc4c3nc3n4CCCCC3)CC2)c1 -9.05%
CCOC(=O)c1scc(-c2ccccc2)c1S(=O)(=O)Nc1ccccc1F -28.4%
CCc1ccc(NC(=O)c2cc(C(C)=O)n3ccccc23)cc1 -15%
CC(C)c1ccc(C2N3CC4(C)CN2CC(c2ccccc2)(C3)C4=O)cc1 (stereo unspecified) -21.6%
Cc1ccccc1NC(=O)c1ccc(F)c(S(=O)(=O)N(C)Cc2ccccc2)c1 -2.24%
Cc1cc(C)c(Cn2c3ccccc3c3cnn(CC(=O)NC4CCC(C)CC4)c(=O)c32)c(C)c1 (stereo unspecified) 21.8%
O=C(O)c1cc(NC2(c3ccccc3)C(=O)c3ccccc3C2=O)ccc1Cl -24.2%
Cc1nc(-c2ccc(Cl)cc2)sc1CCNC(=O)C(=O)Nc1ccc(F)cc1F -18.5%
CCCCN1C(=O)c2[nH]nc(-c3ccccc3O)c2C1c1cccc(OCc2ccccc2)c1 (stereo unspecified) -9.56%
O=C(Cn1c(=O)oc2cc(S(=O)(=O)N3CCCCC3)ccc21)Nc1cccc(Cl)c1 -16.6%
Cc1ccccc1-n1c(SCC(=O)Nc2ccc(Cl)cc2F)nnc1-c1cc2occc2n1C -19.5%
Cc1cccc(NC(=O)CCCn2c(C)c3cnn(-c4ccccc4)c(=O)c3c2C)c1C -16.2%
Cc1oc2c(c(C)cc3oc(=O)c(CC(=O)NCCc4ccccc4F)c(C)c32)c1C -2.89%
CCOC(=O)C1CCN(c2ncnc3c2c(-c2ccccc2)cn3-c2cccc(C)c2)CC1 -7.57%
CCc1ccc(NC(=O)CN2CCN(Cc3ccccc3)S2(=O)=O)cc1 -4.04%
Cc1ccc(Cn2c(C(=O)O)c(CNCc3ccccc3Cl)c3ccc(C)cc32)cc1 -17.2%
O=C(Nc1ccc2oc(-c3cccnc3)nc2c1)c1cccc(Br)c1 -13.5%
COc1cccc(NC(=O)CSc2nc3c(oc4ccccc43)c(=O)n2Cc2ccco2)c1 -17.4%
Cc1ccc(N(CC(=O)NCCc2ccc(Cl)cc2)S(=O)(=O)N(C)C)cc1 4.72%
O=C(Cn1ccn(-c2ccc(F)c(F)c2)c(=O)c1=O)Nc1ccccc1F -15.8%
CCOc1ccccc1CNS(=O)(=O)c1ccc2c(c1)CCCN2C(C)=O -13.1%
Cc1ccc(-c2nc3cc(C(C)C)ccc3o2)cc1NC(=O)c1cc2ccccc2o1 0.936%
CCc1ccc(CNC(=O)c2sc3ncccc3c2-n2c(C)ccc2C)cc1 -44.4%
Cc1ccc(CN2CCc3nc(N4CCN(c5ncccn5)CC4)ncc3C2)cc1 -25.9%
Cc1ccc(C)n1-c1nnc(N2CCCC(C(=O)NCc3ccc(Cl)cc3)C2)s1 (stereo unspecified) -28.9%
Cc1ccc(OCC(=O)Nc2ccc(S(=O)(=O)Nc3cc(C)nc(C)n3)cc2)c(Br)c1 1.75%
Cc1cccc(NC(=O)C(=O)NCC(c2ccc3c(c2)OCO3)N2CCOCC2)c1C (stereo unspecified) -2.39%
COc1ccccc1-c1nc2c(c(SCc3cccc(Cl)c3)n1)Cc1c(CO)cnc(C)c1O2 -18.2%
CCOC(=O)c1ccccc1NC(=O)N1CCc2c(sc(C)c2CC)C1c1ccccc1 (stereo unspecified) -20.6%
COc1cc(OC)cc(C(=O)Oc2c(Sc3ccccc3)c(C)nn2C(C)(C)C)c1 -18%
Cc1cn2c(=O)cc(COC(=O)c3cccc(NC(=O)COc4ccccc4Cl)c3)nc2s1 -24.4%
CCc1ccc(C2c3c(-c4ccccc4O)n[nH]c3C(=O)N2Cc2ccncc2)cc1 (stereo unspecified) -11.3%
CC(C)CCNC(=O)CCCN1C(=O)c2ccccc2Sc2ncccc21 -6.6%
COc1cc(-c2noc(CN3CCN(c4ccccc4)CC3)n2)cc(OC)c1OC -8.83%
CCOc1ccc(-n2c(Cc3ccccc3)nnc2SCc2nc(-c3ccccc3OC)no2)cc1 -9.08%
CN1CCN(C(CNC(=O)c2cccc(F)c2)c2ccc3c(c2)OCO3)CC1 (stereo unspecified) -12.3%
Cc1ccc(Cl)cc1N1CCN(C(=O)c2cnc(N3CCOCC3)c3ccccc23)CC1 -0.755%
O=C(Nc1cccs1)Nc1cc(C(F)(F)F)ccc1Cl -8.4%
Cc1cc(C)c(NC(=O)C2CCN(c3nc4ccccc4[nH]3)CC2)c(C)c1 -8.64%
Cc1ccc(C)c(CSc2c(C(C)C)cnc3c2c(=O)n(C)c(=O)n3C)c1 -20.5%
CN1CCN(C(=O)c2cnn(-c3cccc(F)c3)c2C2CCN(C(=O)OC(C)(C)C)CC2)CC1 3.02%
Cc1cc2c(cc1NC(=O)c1ccc(C(C)(C)C)cc1)n(C)c(=O)c(=O)n2C -7.38%
CC(C)c1ccc(CNc2nc(-c3ccco3)nn2S(=O)(=O)c2ccccc2)cc1 -1.55%
CCOc1ccccc1CNC(=O)c1nn(C)c2c1CS(=O)(=O)c1ccccc1-2 -14.3%
CCOc1ccc(/C=C/c2nc(C#N)c(N(C)C)o2)cc1 -13.8%
Cc1csc2nc(COc3ccc(NC(=O)COc4ccc(F)cc4)cc3)cc(=O)n12 -9.53%
Cc1ccc(NC(=O)Cn2cc(S(=O)(=O)N3CCN(c4ccccc4F)CC3)c3ccccc3c2=O)cc1F -16.2%
COc1ccc(N2CCN(C(CNC(=O)c3ccc(C)cc3)c3ccc4c(c3)OCO4)CC2)cc1 (stereo unspecified) -6.99%
COC(=O)c1cc(S(=O)(=O)N2CCN(c3ccc(C)cc3C)CC2)cn1C -5.9%
Cc1sc(-c2cc3ccccc3oc2=O)nc1-c1ccc(Cl)cc1 2.92%
COc1ccc(NC(=O)c2sc3nc[nH]c(=O)c3c2C)cc1 -22.3%
Cc1ccc(-c2cc(C(=O)Oc3ccccc3)c3cccc(C)c3n2)cc1 -11.7%
COc1ccc(-c2noc(-c3ccc(N4CCCCC4)c([N+](=O)[O-])c3)n2)cc1 -5.62%
O=C1CN(C(=O)C2CCCCC2)C(c2ccccc2)c2cc(F)ccc2N1 (stereo unspecified) -23.8%
CCOc1ccc(C2c3c(oc4ccc(C)cc4c3=O)C(=O)N2c2nc(C)c(C)s2)cc1OC (stereo unspecified) -17.3%
CCOC(=O)c1cnc2ccc(OCC)cc2c1N1CCN(c2cccc(Cl)c2)CC1 -21.8%
COC(=O)c1ccccc1NC(=O)Nc1cccc(OCc2cc(=O)n3cccc(C)c3n2)c1 28.9%
CCCCCCOc1ccc(-c2nc3ccc(Br)cc3c(=O)o2)cc1 -2.33%
O=C1CC(c2ccccc2)Cc2[nH]c(=O)c(-c3nc(-c4ccc(F)cc4)cs3)cc21 (stereo unspecified) -7.47%
Cc1ccccc1-c1nc(CS(=O)CC(=O)NCCc2ccc(Cl)cc2)c(C)o1 (stereo unspecified) -10.5%
O=C(CN1C(=O)COc2ccc(S(=O)(=O)N3CCCC3)cc21)N1CCN(c2ccccc2F)CC1 6.39%
CC(C)Oc1ccc(CNC(=O)C2COc3ccccc3C2)cc1 (stereo unspecified) -10.4%
Cc1cc(NC(=O)C2CCCN(S(=O)(=O)c3ccc(Br)s3)C2)ccc1Br (stereo unspecified) 0.153%
COc1ccc(CC(=O)Nc2ccc(-c3nc4ccccc4s3)cc2Cl)cc1 10.6%
Cc1cc(OCC(=O)NCC2(N(C)C)CCCCC2)cc(C)c1Cl -6.36%
Cc1ccc(CCNC(=O)CN2C(=O)COc3ccc(S(=O)(=O)N4CCC(C)CC4)cc32)cc1 -15.7%
CCN1CCN(C(c2cccc(Cl)c2)c2c(O)cc(C)n(CCOC)c2=O)CC1 (stereo unspecified) -18%
Cc1ccc(-c2nnc(SCC(=O)NCCC(C)C)nc2-c2ccc(C)cc2)cc1 -0.386%
CCn1cc(C(=O)NCCCN(CC(C)C)CC(C)C)c(=O)c2cc(S(=O)(=O)N3CCc4ccccc4C3)ccc21 -17%
COc1cccc(C2=NS(=O)(=O)N(C)C(C(=O)Nc3cccc(O)c3)=C2)c1 -12.7%
CCCN(CCC)c1nn2c(=O)c(C(=O)NCc3cccc(OC)c3)cnc2s1 -19.8%
Cc1cc2nn(-c3ccc(F)cc3)nc2cc1NC(=O)c1cc(Cl)ccc1Cl -15.3%
CCCCN1C(=O)C(O)(c2c(C)[nH]c3ccccc23)c2cc(Br)ccc21 (stereo unspecified) -12.4%
O=C(NCc1ccccc1)C(=O)NCC(c1ccco1)S(=O)(=O)c1ccccc1 (stereo unspecified) -17.3%
CCc1ccc(NC(=O)N(Cc2c[nH]c3ccccc23)C2CCCCCC2)cc1 -21.1%
COc1ccc(N2CCN(C(CNC(=O)C(=O)NCc3ccc(F)cc3)c3cccnc3)CC2)cc1 (stereo unspecified) -4.55%
COc1ccc(Cl)cc1NC(=O)CSc1nnc(C)n2c1cc1occc12 -15.6%
O=S(=O)(NCCc1csc(-c2ccc(F)cc2)n1)c1ccc(F)cc1F -8.36%
COc1ccc(N2CC(NC(=O)c3cccs3)CC2=O)cc1OC (stereo unspecified) 16.8%
O=C(Nc1nnc(S(=O)(=O)N2CCCCC2)s1)c1ccc(Cl)cc1 -19.5%
CC(=O)Nc1ccc(NS(=O)(=O)c2ccc3c(c2)CCCN3C(C)=O)cc1 -16.5%
CCc1ccc(-c2[nH]c3c(c2-c2c(-n4cccc4)n(C)c(=O)[nH]c2=O)c(=O)[nH]c(=O)n3C)cc1 -6.98%
COc1ccc(-n2ncc(C(=O)Nc3ccc(C)cc3Cl)c2C2CCN(C(=O)OC(C)(C)C)CC2)cc1 -5.55%

From PubChem BioAssay AID1159614 (National Center for Advancing Translational Sciences (NCATS), 2016)
